Hit rate of the full screen: of about 39,000 compounds, about 220 (0.56%) showed activity. The list shows a part of the results.
Each molecule was assayed on Escherichia coli K-12 BW25113 (assay: relative growth (OD600 normalised to plate interquartile mean) (fraction); higher = less growth inhibition, active = 0.2 or less). Conditions: 50 µM; LB; incubation time: overnight (16-24 h).
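Note: static incubation at 37 °C against the wild-type strain, values averaged over two biological replicates.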

SMILES	relative growth
COc1cccc(S(=O)(=O)Nc2ccc3c(c2)C(=O)N(C)C[C@@H](OC)[C@@H](C)CN(C(=O)Cc2cccnc2)[C@H](C)CO3)c1	inactive: 1.02
C[C@@H]1[C@@H](c2ccccc2)OC(=O)[C@@H]2[C@H]3C(=O)N([C@@H](C)CO)[C@@H]4C(=O)N(Cc5ccccc5)CC=C[C@]34O[C@@H]2/C=C/CCC(=O)N1C	inactive: 1.02
COc1ccc(CN(C)C[C@H]2Oc3ccc(NC(=O)CCN4CCOCC4)cc3C(=O)N([C@H](C)CO)C[C@@H]2C)cc1	inactive: 1
Cc1cc(C(=O)Nc2cccc3c2O[C@@H](CN(C)S(=O)(=O)c2cn(C)cn2)[C@H](C)CN([C@H](C)CO)C3=O)n(C)n1	inactive: 0.942
COc1ccc(C#Cc2ccc3c(c2)O[C@@H](CN(C)C(=O)CN2CCOCC2)[C@@H](C)CN([C@@H](C)CO)S3(=O)=O)cc1	inactive: 0.988
C[C@@H]1CN([C@@H](C)CO)C(=O)Cc2cc(NC(=O)c3ccncc3)ccc2O[C@@H]1CN(C)Cc1ccc(Oc2ccccc2)cc1	inactive: 0.985
Cc1n[nH]c(=O)n1-c1cccc(C(=O)O)c1	inactive: 0.999
CC(C)CN(C[C@@H](OP(=O)(O)O)[C@H](Cc1ccccc1)NC(=O)O[C@H]1CCOC1)S(=O)(=O)c1ccc(N)cc1	inactive: 0.988
CC(C)NC(=O)N(C)C[C@@H]1Oc2cc(C#Cc3ccccn3)ccc2S(=O)(=O)N([C@@H](C)CO)C[C@H]1C	inactive: 0.979
Cc1ccc(S(=O)(=O)Nc2ccc3c(c2)C(=O)N([C@H](C)CO)C[C@H](C)[C@H](CN(C)C(=O)Nc2ccc4c(c2)OCO4)OCCCC[C@@H](C)O3)cc1	inactive: 0.912
Cc1ccc(S(=O)(=O)Nc2ccc3c(c2)C(=O)N([C@H](C)CO)C[C@H](C)[C@H](CN(C)S(=O)(=O)c2cccs2)O3)cc1	inactive: 1.01
COc1ccc(NC(=O)Nc2ccc3c(c2)C(=O)N([C@H](C)CO)C[C@H](C)[C@H](CN(C)S(=O)(=O)c2ccc(C)cc2)OCCCC[C@@H](C)O3)cc1	inactive: 1.03
C[C@@H]1CCCCO[C@H](CN(C)S(=O)(=O)c2ccc(Cl)cc2)[C@H](C)CN([C@@H](C)CO)C(=O)c2cc(NC(=O)C3CCCCC3)ccc2O1	inactive: 1.02
C[C@@H]1CN([C@H](C)CO)C(=O)c2cc(NS(=O)(=O)c3cccs3)ccc2O[C@@H](C)CCCCO[C@@H]1CN(C)Cc1ccc(C(=O)O)cc1	inactive: 0.968
C[C@@H]1CCCCO[C@@H](CN(C)C(=O)CCCN(C)C)[C@H](C)CN([C@@H](C)CO)C(=O)c2cc(NS(=O)(=O)c3cn(C)cn3)ccc2O1	inactive: 0.99
CCn1cc(-c2ccnc3[nH]c(-c4cccc(CN(C)C)c4)cc23)c(-c2ccc(NC(=O)N(C)C)cc2)n1	inactive: 0.946
C[C@H](CO)N1C[C@H](C)[C@H](CN(C)Cc2ccc(-c3ccccc3)cc2)Oc2ccc(NC(=O)Nc3ccc(F)cc3)cc2C1=O	inactive: 0.984
N[C@H]1C[C@@H]1c1ccc(-c2cccc(O)c2)cc1	inactive: 0.951
Cc1noc(C)c1NC(=O)N(C)C[C@H]1OCCCC[C@H](C)Oc2ccc(NC(=O)C3CCCCC3)cc2C(=O)N([C@@H](C)CO)C[C@@H]1C	inactive: 0.968
COc1cccc(S(=O)(=O)Nc2ccc3c(c2)[C@H]2C[C@H](CC(=O)NC4CCCCC4)O[C@H](CO)[C@H]2O3)c1	inactive: 1.01

SMILES	relative growth
C[C@H](CO)N1C[C@H](C)[C@@H](CN(C)C(=O)Nc2cccc(Oc3ccccn3)c2)OCc2cnnn2CCCC1=O	inactive: 0.984
C[C@@H]1CN([C@H](C)CO)C(=O)c2cc(C#CC3(O)CCCC3)cnc2O[C@H]1CN(C)C(=O)Cc1ccncc1	inactive: 0.971
O=C(C[C@H]1CC[C@@H]2[C@H](COC[C@H](O)CN2Cc2ccccc2F)O1)N[C@@H]1CCN(Cc2ccccc2)C1	inactive: 0.997
COc1ccc(NC(=O)N(C)C[C@H]2Oc3c(NC(=O)c4cc(C)nn4C)cccc3C(=O)N([C@@H](C)CO)C[C@H]2C)cc1	inactive: 0.993
O=C(Nc1ccccc1)C1=C[C@H](c2ccc3c(c2)Cc2ccccc2-3)C[C@H](OCc2ccc(CO)cc2)O1	inactive: 1.04
CCOc1ccccc1OCCNC(C)Cc1ccc(OC)c(S(N)(=O)=O)c1.Cl (stereo not drawn)	inactive: 1.03
C[C@@H]1CN([C@@H](C)CO)C(=O)Cc2cc(NC(=O)Nc3ccccc3)ccc2O[C@@H]1CN(C)Cc1ccc(C(=O)Nc2ccccc2N)cc1	inactive: 0.975
C[C@H](CO)N1C[C@H](C)[C@H](CN(C)C(=O)Nc2ccc(F)cc2)Oc2ccc(NC(=O)Nc3cccc4ccccc34)cc2C1=O	inactive: 1.01
Cc1ccc(S(=O)(=O)N(C)C[C@H]2OCCCC[C@H](C)Oc3ccc(NC(=O)Nc4ccccc4)cc3C(=O)N([C@@H](C)CO)C[C@@H]2C)cc1	inactive: 1.06
C[C@H]1CCCCO[C@H](CN(C)CC2CCCCC2)[C@@H](C)CN([C@@H](C)CO)C(=O)c2cc(NC(=O)Nc3ccccc3)ccc2O1	inactive: 0.967
COc1ccc(S(=O)(=O)N[C@H]2CC[C@@H](CCNC(=O)CN3CCOCC3)O[C@H]2CO)cc1	inactive: 0.986
CC(C)NC(=O)Nc1ccc2c(c1)C(=O)N([C@@H](C)CO)C[C@@H](C)[C@H](CN(C)S(=O)(=O)c1ccc(F)cc1)O2	inactive: 0.981
C[C@H](CO)N1C[C@H](C)[C@@H](CN(C)S(C)(=O)=O)Oc2ccc(NC(=O)Nc3ccc(F)cc3)cc2C1=O	inactive: 0.982
CN1CCN(C(=O)C[C@H]2CC[C@@H](NC(=O)c3ccc4c(c3)OCO4)[C@H](CO)O2)CC1	inactive: 1.01
COc1ccc(NC(=O)N(C)C[C@@H]2OCCCC[C@H](C)Oc3ccc(NS(=O)(=O)c4ccc(F)cc4)cc3C(=O)N([C@H](C)CO)C[C@H]2C)cc1	inactive: 0.921
C[C@@H]1CCCCO[C@H](CN(C)C(=O)Nc2ccc(F)cc2)[C@@H](C)CN([C@H](C)CO)C(=O)c2cc(NC(=O)Nc3ccc(C(F)(F)F)cc3)ccc2O1	inactive: 0.993
C[C@H](CO)N1C[C@H](C)[C@H](CN(C)Cc2ccc(C(F)(F)F)cc2)OCCCC[C@H](C)Oc2ccc(NC(=O)Nc3ccc(C(F)(F)F)cc3)cc2C1=O	inactive: 1.02
O=C(C[C@@H]1C[C@@H]2c3cc(NC(=O)C4CCOCC4)ccc3O[C@@H]2[C@H](CO)O1)NCc1ccc2c(c1)OCO2	inactive: 0.981
COc1ccc(NC(=O)N(C)C[C@@H]2OCc3ccccc3-c3c(n(C)c4ccccc34)C(=O)N([C@H](C)CO)C[C@@H]2C)c(OC)c1	inactive: 1.02
C[C@H]1CN([C@@H](C)CO)C(=O)Cc2cc(NC(=O)Nc3ccc(C(F)(F)F)cc3)ccc2O[C@H]1CN(C)Cc1ccncc1	inactive: 1

SMILES	relative growth
C/C=C/c1ccc2c(c1)O[C@@H](CN(C)S(=O)(=O)c1ccccc1OC)[C@@H](C)CN([C@@H](C)CO)S2(=O)=O	inactive: 1.01
COc1cc(N2CCO[C@]3(COCCN(CCN(C)C)C3)C2)ncn1	inactive: 1.01
C[C@@H]1CN([C@H](C)CO)S(=O)(=O)c2ccc(C#CC(C)(C)O)cc2O[C@H]1CN(C)Cc1ccncc1	inactive: 0.986
C[C@@H]1CN([C@@H](C)CO)C(=O)CCCn2cc(nn2)CO[C@H]1CN(C)C(=O)Nc1ccc(C(C)(C)C)cc1	inactive: 1.01
COc1ccc(S(=O)(=O)Nc2ccc3c(c2)C(=O)N([C@H](C)CO)C[C@H](C)[C@@H](CN(C)Cc2ccc(C(F)(F)F)cc2)OCCCC[C@H](C)O3)cc1	inactive: 0.899
COc1ccc(CN(C)C[C@H]2Oc3ccc(NS(C)(=O)=O)cc3CC(=O)N([C@@H](C)CO)C[C@H]2C)cc1	inactive: 0.844
C[C@H]1CN([C@@H](C)CO)C(=O)c2cccc(NS(C)(=O)=O)c2O[C@H]1CN(C)S(=O)(=O)c1cccs1	inactive: 0.987
C[C@H](CO)N1C[C@H](C)[C@H](CN(C)Cc2ccc(C(=O)Nc3ccccc3N)cc2)Oc2c(NC(=O)C3CCCCC3)cccc2C1=O	inactive: 1
Cc1nc(S(=O)(=O)N[C@H]2CCS(=O)(=O)C2)cn1C	inactive: 1.02
C[C@@H]1CCCCO[C@@H](CN(C)S(=O)(=O)c2cn(C)cn2)[C@@H](C)CN([C@H](C)CO)C(=O)c2cc(NC(=O)Nc3ccc(C(F)(F)F)cc3)ccc2O1	inactive: 1.02
COc1cc(Cc2cc3c(c(CCc4ccccc4)n2)[Si](C(C)C)(C(C)C)O[C@H]3c2ccccc2)cc(OC)c1OC	inactive: 0.989
C[C@H]1CCCCO[C@@H](CN(C)Cc2ccccc2)[C@@H](C)CN([C@@H](C)CO)C(=O)c2cc(NC(=O)c3ccncc3)ccc2O1	inactive: 1.01
C[C@H]1CN([C@@H](C)CO)S(=O)(=O)c2ccc(-c3cccc(F)c3)cc2O[C@H]1CN(C)S(C)(=O)=O	inactive: 1.01
COc1ccc(NC(=O)Nc2ccc3c(c2)CC(=O)N([C@@H](C)CO)C[C@@H](C)[C@@H](CN(C)Cc2ccc(-c4ccccc4)cc2)O3)cc1	inactive: 1.01
CC[C@@H](NC)C(=O)O	inactive: 0.991
NNS(=O)(=O)c1ccc(Cl)cc1	inactive: 1.01
Cc1noc(C)c1S(=O)(=O)Nc1cccc2c1O[C@H](CN(C)S(=O)(=O)c1cccs1)[C@H](C)CN([C@@H](C)CO)C2=O	inactive: 1
CC(=O)C1CCC2C3CCC4=CC(=O)CCC4(C)C3CCC12C (stereo not drawn)	inactive: 0.904

Reference: the supplement of paper PMC9446081
